# Measurements taken from PubChem BioAssay AID485344 (National Center for Advancing Translational Sciences (NCATS), 2010).
# About 6,900 (2%) of roughly 340,000 compounds were called active. No stated cut-off is given here; in the data, active means inhibition above about 30%; inactive means below that, where a call was filed. The entries are a selection whose mix differs from that of the whole data set. Entries without a call were filed so in the source.
# Molecular target: D(2) dopamine receptor (Homo sapiens) (UniProt P14416)
# Assay: HTS Assay for Allosteric Antagonists of the Human D2 Dopamine Receptor: Primary Screen for Antagonists; further: 0% is about no effect
# Conditions: HEK293 TREx D2 cells, calcium flux, dopamine EC80; at 10 µM; stronger effect = higher value
# Outline: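 Antagonism is scored as inhibition of an EC80 dopamine-evoked calcium signal in a force-coupled, tetracycline-inducible HEK293 T-REx D2 line, with compound present 180 s before agonist.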
# UniProt P14416, sequence (P14416 whole entry, looked up): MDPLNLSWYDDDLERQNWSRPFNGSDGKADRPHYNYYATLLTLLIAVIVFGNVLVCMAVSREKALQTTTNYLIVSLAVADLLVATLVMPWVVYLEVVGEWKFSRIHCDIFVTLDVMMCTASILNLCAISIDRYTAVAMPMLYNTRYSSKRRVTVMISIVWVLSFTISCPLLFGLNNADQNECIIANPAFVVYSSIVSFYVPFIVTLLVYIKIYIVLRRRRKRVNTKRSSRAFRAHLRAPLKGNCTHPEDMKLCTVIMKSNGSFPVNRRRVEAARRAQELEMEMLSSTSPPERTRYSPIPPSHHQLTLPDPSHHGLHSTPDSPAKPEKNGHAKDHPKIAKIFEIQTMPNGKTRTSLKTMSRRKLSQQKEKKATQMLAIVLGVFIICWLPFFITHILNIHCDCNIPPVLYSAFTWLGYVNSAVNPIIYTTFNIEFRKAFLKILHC
row,Compound,inhibition
1,Cc1cccc(NC(=O)Nc2nnc(N(C)Cc3ccccc3)s2)c1,10.5%
2,CC(=O)c1ccc(NC(=O)c2sc(-n3nc(C)c(Cc4ccccc4)c3C)nc2C)cc1,0.203%
3,Cc1ccc(Cl)cc1N1CCN(S(=O)(=O)c2ccc3c(c2)CC(C)N3C(=O)C2CCC2)CC1 (stereo unspecified),-8.52%
4,CCOCCCNc1ncnc2onc(C)c12,-14.4%
5,Cn1c(=O)c2c(ncn2CC(=O)Nc2cccc(Cl)c2Cl)n(C)c1=O,-14.8%
6,COC(=O)c1cccnc1-n1c(=O)c2cccnc2n(CC(=O)Nc2ccc(C)cc2C)c1=O,5.31%
7,O=C(Nc1cc(C(F)(F)F)ccc1Cl)c1cc(-c2ccc3c(c2)OCCO3)on1,-2.33%
8,CC(C)COc1ccccc1C(=O)NC(CO)C(=O)O (stereo unspecified),active: 42.8%
9,O=C(Nc1ccc(S(=O)(=O)Nc2ncccn2)cc1)c1ccccc1Cl,9.48%
10,Cc1ccc2c(c1)N(C(=O)CCC(=O)NCc1ccccc1Cl)CC(C)O2 (stereo unspecified),15.5%
11,Cc1ccccc1Nc1nc(-c2cccc(Cl)c2)c2c(n1)-c1ccccc1OC2,10.9%
12,CC(NC(=O)Cn1c(=O)oc2cc(S(=O)(=O)NCc3ccccc3)ccc21)c1ccccc1 (stereo unspecified),3.71%
13,COc1ccc(NC(=O)CSc2nnc(NC(=O)Nc3ccccc3)s2)cc1OC,16.8%
14,CC(=O)c1ccc(NC(=O)COc2ccccc2-c2nc(-c3cccc(C)c3)no2)cc1,-2.52%
15,COc1ccccc1CNC(=O)CCCn1c(=O)c2ccccc2n(CC(=O)Nc2c(C)cc(C)cc2C)c1=O,8.05%
16,O=C(CSc1nc(=O)n(CCN2CCOCC2)c2c1CCC2)Nc1ccccc1,-1.82%
17,COCCCNC(=O)c1ccc2c(c1)N(Cc1ccccc1)C(=O)c1ccccc1S2,5.88%
18,CCOC(=O)c1sc(NC(=O)C2c3ccccc3Oc3ccccc32)c(C(=O)OCC)c1C,-3.02%
19,COC(=O)c1cccc(-c2ccc(/C=N/N3C(=O)C4C5C=CC(C6CC56)C4C3=O)o2)c1 (stereo unspecified),active: 31.9%
20,CCn1cc(C(=O)NCc2ccccc2Cl)c(=O)c2cc(S(=O)(=O)N3CCc4ccccc4C3)ccc21,4.88%
21,COc1ccc(C(=O)Nc2nnc(S(=O)(=O)N(CC(C)C)c3ccc(C)cc3)s2)cc1OC,-0.115%

row,Compound,inhibition
1,COc1ccccc1Nc1nn2c(=O)c3ccc(C(=O)N4CCCC(C)C4)cc3nc2s1 (stereo unspecified),-10.6%
2,Cc1ccc(-n2nc(C)c3c(C(=O)NCc4ccccc4)cc(C4CC4)nc32)cc1,-12.1%
3,COc1ccccc1CNS(=O)(=O)c1ccc2c(c1)NC(=O)CC(=O)N2,9.07%
4,Cc1ccc(S(=O)(=O)NCc2nc(-c3cccc(C)c3)no2)cc1,25.2%
5,COc1ccc(C2CC(=O)N(Cc3cccc(F)c3)c3ccccc3S2)cc1 (stereo unspecified),-1.25%
6,CCOC(=O)c1scc(-c2ccccc2)c1S(=O)(=O)Nc1cc(Cl)c(OC)cc1OC,-1.79%
7,CC1CCc2c(sc(NC(=O)C3c4ccccc4Oc4ccccc43)c2C(=O)OC(C)C)C1 (stereo unspecified),-13.7%
8,CCOC(=O)c1oc2ccc(S(=O)(=O)n3nc(-c4ccc(Br)cc4)cc3N)cc2c1C,17.3%
9,COc1ccc(CNC(=O)c2c3c(nc4ccccc24)C(=O)N(C2CCCCC2)C3)cc1,-4.03%
10,COC(=O)c1ccc(CSc2nc3c([nH]c4ccccc43)c(=O)n2-c2ccc(OC)cc2)o1,20.2%
11,COc1cccc(CNC(=O)c2nn(-c3ccc(C)cc3)c(=O)c3c2c2ccccc2n3C)c1,20.5%
12,O=C(Cc1ccccc1)NCCc1csc2nc(-c3ccc(Cl)cc3)nn12,7.37%
13,CCOc1ccccc1NC(=O)c1c(NC(=O)c2cccc(C)c2)sc2c1CCC2,4.88%
14,Cc1ccc(-c2cc(C(F)(F)F)n3nc(C(=O)NCC45CC6CC(CC(C6)C4)C5)cc3n2)cc1,14.3%
15,Clc1ccccc1CSc1nc2ccncc2[nH]1,active: 32.3%
16,CCc1cc2c(cc3c(=O)n(CC(=O)NC4CCC(C)CC4)ncn32)s1 (stereo unspecified),-6.55%
17,COc1cc2nc(NCc3ccc(C)cc3)n3nc(-c4ccccc4)nc3c2cc1OC,10%
18,Cc1ccc(NC(=O)c2ccc(-n3c(C)nnc3C)cc2)cc1F,2.91%
19,CCCCC(=O)Nc1ccc2c(c1)nc(CCN1CCN(c3ccccn3)CC1)n2C,active: 51%
20,CCc1ccccc1NC(=O)C1CCCN(C(=O)c2cnn(-c3ccccc3)c2-n2cccc2)C1 (stereo unspecified),7.38%
21,CCOC(=O)c1c(-c2ccc(C)cc2)csc1NC(=O)c1nc(SC(C)C)ncc1Cl,-10%

row,Compound,inhibition
1,O=C(c1cccs1)N1CCN(Cc2ccccn2)CC1,active: 52.5%
2,CCCc1nc(SCc2cc(=O)c3ccc(C)c(C)c3[nH]2)n[nH]1,-18.9%
3,CCC(C(=O)NCCc1ccccc1)n1nc(C)n2c(cc3sccc32)c1=O (stereo unspecified),-10.3%
4,COc1ccc(S(=O)(=O)N2CCN(Cc3nc4ccc(C)cc4o3)CC2)cc1Cl,3.25%
5,CCN(CC)CCNC(=O)c1ccc2c(=O)n3nc(Nc4ccccc4OC)sc3nc2c1,-6.28%
6,CCOc1ccc(-c2nc(CSCC(=O)NCc3ccc(Cl)cc3)c(C)o2)cc1,-9.87%
7,COc1cccc(CNC(=O)C2CCN(c3nnc(-n4c(C)ccc4C)s3)CC2)c1OC,5.66%
8,O=S1(=O)c2ccccc2N(Cc2cccc(Cl)c2)c2ccccc21,10.3%
9,CC(=O)c1cc2c(cc1N/C(=N/S(=O)(=O)c1ccc(C)cc1)c1ccc(F)cc1)OCO2,24.1%
10,COc1ccc(CCNC(=O)c2ccc3c(c2)ncn3-c2ccc(C)cc2C)cc1OC,-10.8%
11,CCc1ccc(S(=O)(=O)c2nnn3c2nc(NC(C)C)c2sccc23)cc1,4.13%
12,Cc1c(C(=O)N2CCN(c3ccccc3)CC2)sc2nc3n(c(=O)c12)CCC3,16.4%
13,COc1ccc(CCNC(=O)CS(=O)Cc2nc(-c3ccccc3F)oc2C)cc1OC (stereo unspecified),-15.7%
14,COc1cc(NC(=O)CSc2ncccc2C(=O)OC(C)C)cc(OC)c1,12.6%
15,Fc1cccc(CSc2ncnc3c2oc2ccccc23)c1,active: 30.5%
16,Cc1cc(C(=O)NCc2ccccc2Cl)c2c(C)nn(-c3ccccc3)c2n1,-1.06%
17,O=C(COC(=O)CCNS(=O)(=O)c1ccccc1)NC(=O)Cc1ccccc1,active: 36.6%
18,CCN1C(C(=O)c2ccccc2)=C(OC(=O)c2ccccc2OC)c2ccccc2S1(=O)=O,-2.21%
19,COc1ccc(OCCCC(=O)NNC(=O)CCN2CCN(c3ccccc3)CC2)cc1,active: 70.9%
